Experimental data from paper PMC12136788.
Some of the results follow.

T1: UNK ZnF1-3 (human, UniProt Q9C0B0 31-174)
T1 sequence: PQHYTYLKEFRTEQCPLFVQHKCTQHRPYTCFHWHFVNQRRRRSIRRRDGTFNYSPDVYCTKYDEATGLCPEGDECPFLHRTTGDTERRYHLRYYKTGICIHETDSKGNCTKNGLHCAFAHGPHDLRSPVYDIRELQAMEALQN

B1: chr4:17845017:17845018:+_ENSG00000109805_ENST00000514176|hu_mus|hu_hu_hu_mus_False|88_88 (ssRNA)
RNA: GGGAGUUCUACAGUCCGACGAUCGCUCUCUUAACUUGUAUCUUCAUGAGAAAUUGGUGCAAGGUUAAGUUUACUUUUCUGUAGCGCAGCUGUUUUGGCUCGUCUGGGUAAUCUCAUCUUCAUUUCUGAUGGUGGUUCAUGAUCCAACAGAGGAUUGAGCAUCA
B2: chr2:179515052:179515053:+_ENSMUSG00000000305_ENSMUST00000000314|mus_hu|mus_mus_mus_hu_False|18_28 (ssRNA)
RNA: GGGAGUUCUACAGUCCGACGAUCGCUGUCCCAUGCAGUCACCGUGAACGCCACCUGCUCGGAGGGGACCUGCAGCUCCCGGGUGGCGAAGACUGUCCCAUCUGCCCCGACUUUGAAGUCCAAGCUGUUGGUCUCAUAUUGUGUCAACAGAGGAUUGAGCAUCA
B3: chr5:145543945:145543946:-_ENSG00000133706_ENST00000545646|hu_hu|hu_hu_hu_mus_True|38_38 (ssRNA)
RNA: GGGAGUUCUACAGUCCGACGAUCCUGAACGGCCAGUGGUGGGAAAUAAUCAAGCCAGUGCUCUGCUUCAGAAAACUUCACUAUGUCGUCAUCAGAGAGGCCAAGGGAUUUCAUAAUGUCCCACUGGUACUUAGAAGAUCCUGCCAACAGAGGAUUGAGCAUCA
B4: chr14:89307221:89307222:+_ENSG00000165533_ENST00000346301|hu_mus|hu_hu_hu_mus_False|38_78 (ssRNA)
RNA: GGGAGUUCUACAGUCCGACGAUCUCCUGUUUGGUUAGUGCCAGGGAGCUUCAAAGACGUUCCAGGGCGUGGGACCUGAGCAAUAGCAUUUUCAUCCAGCAUCAUUUCAGCAAUUCCUUCCUGGUCCACAUCAAUUUCAUCUAUCAACAGAGGAUUGAGCAUCA
B5: chr5:73697939:73697940:+_ENSMUSG00000029152_ENSMUST00000031038|mus_hu|FALSE|FALSE (ssRNA)
RNA: GGGAGUUCUACAGUCCGACGAUCUCCUUGGACAAUAUGAUCAGUAAUACCAGUGGGAGCAGAUUCAUUCAUAGAAGAACUGAAUGGAAUUGGCUCAUAAUGAGGAAGCAUUUCUAUGUUGUCUGCUGCUGGGGAUGUCACAAACAACAGAGGAUUGAGCAUCA
B6: chr7:75932113:75932114:+_ENSG00000106211_ENST00000248553|hu_hu|hu_hu_hu_mus_False|58_88 (ssRNA)
RNA: GGGAGUUCUACAGUCCGACGAUCCUGCGACCACUCAUCGGGCAACCGGGGCAGCCCGAAAGCUUGAUCGAAGAGGCGGCUAUGCGGAGGGUACCAGUCCCGGAAUGGUUCCCAGCUCGGGCUCCGCAGCAGCGAGAAGGGCACCAACAGAGGAUUGAGCAUCA
B7: chr3:148802587:148802588:-_ENSG00000071794_ENST00000310053|hu_mus|hu_hu_hu_mus_False|38_98 (ssRNA)
RNA: GGGAGUUCUACAGUCCGACGAUCUCCAACAACUUGUCCUCUCAAACUUCCAAAUAAAACCAAAUCUUGCUCUUCAUCACUCGUUAGGAAGUCAUCUGGAGGGAUAAUGUCUUGGAAUUCAAAAUGUGGCAAGAAAGUUGAGUACAACAGAGGAUUGAGCAUCA
B8: chr14:96997824:96997825:+_ENSG00000090060_ENST00000216277|hu_mus|FALSE|FALSE (ssRNA)
RNA: GGGAGUUCUACAGUCCGACGAUCGUUUUUAAGCAGACUGUCAUCUCGUAGGUCCAAAUCUUCUGGAAUAGUCUGCAGUGCUAAUCUUGCAAACAAAAUAUCAAUCUCUAUUCCAUCAAAACAGAGUUUGAUAACUGGUACAAACAACAGAGGAUUGAGCAUCA
B9: chr7:135124741:135124742:+_ENSMUSG00000030795_ENSMUST00000077609|mus_hu|FALSE|FALSE (ssRNA)
RNA: GGGAGUUCUACAGUCCGACGAUCAGAGCCACCUGGUCCCCCUCCUGGGCCAUCUGGUUUAGGGGCCUUACACUGGUUGCAUUCAUUCCUCCAAGAGAAGUUCAUAUUCUCACAGGUGGGAUUAGGACACUUCCAGUCACCAGCCAACAGAGGAUUGAGCAUCA
B10: chr10:75542919:75542920:+_ENSG00000172586_ENST00000372833|hu_hu|FALSE|FALSE (ssRNA)
RNA: GGGAGUUCUACAGUCCGACGAUCAUUUCAGUCAUUGAAAAUACUUGUCCAUUUUCAGCUGAGGUAAGGUUUGUUAGGAAACCUCUGUAACAACUUAUUCAAUUUAUUUGGAAGUAAACUCCCAGACUCUCCCAGGGUUUCCUGCAACAGAGGAUUGAGCAUCA
B11: chr17:30658727:30658728:-_ENSG00000108666_ENST00000577809|hu_hu|FALSE|FALSE (ssRNA)
RNA: GGGAGUUCUACAGUCCGACGAUCUUCAAAUCAUCUUAAAUAGCAAUCCUAUGAACAAUUAUAACUGCAAUUUCAAACACUAAGACUUAAAUAUACAACUUGAUCAUACAAUUAUCUCAAAACAUAUGAUCAAAAACUUUGGUCCAACAGAGGAUUGAGCAUCA
B12: chr12:48528548:48528549:+_ENSG00000152556_ENST00000359794|hu_hu|FALSE|FALSE (ssRNA)
RNA: GGGAGUUCUACAGUCCGACGAUCGAGUCGGCGACAAAGGUGUUCCUCCCAGUCGUCAUCUGGUGGACAUUCAGGAAUAAAAACCCAGUCGGCCCCACAGGACAGAGAGGUGACAAGGGCCAGGUAUCCACAGUGGCGGCCCAUCAACAGAGGAUUGAGCAUCA
B13: chr5:132424114:132424115:+_ENSG00000170606_ENST00000304858|hu_hu|motif|central (ssRNA)
RNA: GGGAGUUCUACAGUCCGACGAUCACCGAAAAAUUUGCUGAUCUUCUCUUUUACCGCAGGGAUUCGUGUAGCACCACCAACGGUCUCCACUGCAUAAAUAUCUUCUUUCUUUAACUUGGUUUGUUCCAAAACACUACGAAGUGGCAACAGAGGAUUGAGCAUCA
B14: chr2:198266515:198266516:-_ENSG00000115524_ENST00000335508|hu_mus|motif|central (ssRNA)
RNA: GGGAGUUCUACAGUCCGACGAUCCUUCAUUUCUUCAUCAGGAGACUGAAAUUCUCGAAUGAGGAUUAACAUCACUUCUCGGGUAUAGUAGUUGGCAUAUUCUGCAUCCAUAAGAGGAAUAAGAUACCCAAUAGCCUUCAAGAACAACAGAGGAUUGAGCAUCA
B15: chr3:15292738:15292739:+_ENSG00000131375_ENST00000253693|hu_mus|motif|central (ssRNA)
RNA: GGGAGUUCUACAGUCCGACGAUCCCAGUAAUAGCUGAGAGUUCUCAAUCAUUGGAGUUGUGUUGUCUUGAUGGGGACAGUACGGUUAAAGUCCAAGAAAAAAGGUCCUUCUUGUUUAGGCAAAAAAGUACUAGGGAUGAUAUUCAACAGAGGAUUGAGCAUCA
B16: chr8:95500983:95500984:-_ENSG00000164944_ENST00000437199|hu_hu|hu_hu_hu_mus_True|8_8 (ssRNA)
RNA: GGGAGUUCUACAGUCCGACGAUCAGAACACAUCUAUCGAGUAAAGGACCGUACAUGACGGCCUCUACCACUGCCUCCACUAACAAACUUUCCUCUCGAGCCUCCACUGCCGCUAUUUGUACUAGCCCCAGGAAGGUCCAGGCCCAACAGAGGAUUGAGCAUCA
B17: chr7:135612270:135612271:-_ENSG00000105887_ENST00000393085|hu_mus|hu_hu_hu_mus_False|78_98 (ssRNA)
RNA: GGGAGUUCUACAGUCCGACGAUCGUUUUUUUCUGAGUAAGUAUUACGUACUUCAGUAACAAAACUUACUUAACCUUUUAUUAAUGCGUGUUGUACCAAAAGCAGACAUUUUAGCUUCAUUUAUUCAAAAAUAUUAACAUUAAGCAACAGAGGAUUGAGCAUCA
B18: chr11:106647441:106647442:-_ENSMUSG00000020719_ENSMUST00000021062|mus_mus|FALSE|FALSE (ssRNA)
RNA: GGGAGUUCUACAGUCCGACGAUCUAUGUGUACAAUGGCAGGCAGCAAAUAAGAUAAUGUUUUCCCAGAUCCAGUCUGAGCUACUCCAACCAUAUCCAAUCCACUGAGAGCAACUGGCCAGCCCUGAGCUUGAAUAGCAGUGGGCAACAGAGGAUUGAGCAUCA
B19: chr12:48362563:48362564:+_ENSG00000134291_ENST00000256686|hu_hu|FALSE|FALSE (ssRNA)
RNA: GGGAGUUCUACAGUCCGACGAUCGAUGAAGGGUGAAUCAAGCCCCACAUAGACUCUUGGUAAAAACAAUUCUAACUUUCUAAAAAAAAAAAAAGCCAACACACUUUUUUCUUUCUUUUCAAAAAGCUCCCAGGCCUUUGGGAACAACAGAGGAUUGAGCAUCA
B20: chr1:95392461:95392462:-_ENSG00000117519_ENST00000538964|hu_hu|FALSE|FALSE (ssRNA)
RNA: GGGAGUUCUACAGUCCGACGAUCUUCGGCCGAGAGCCCAUAGGAAGGGCCCUUGUUGAAGUGGGUCAUGGUGGUUCGGGCGGCGGGAAGAGACAGCGCUGGGGUCCGGGGUCUCUCGCACUUCGCUUCCCCGCUCCUGGGUGCCAACAGAGGAUUGAGCAUCA
B21: chr3:72423869:72423870:-_ENSG00000163602_ENST00000477973|hu_hu|motif|central (ssRNA)
RNA: GGGAGUUCUACAGUCCGACGAUCGCAGAAUUCAUAAAUAGACAUUUCUAUUUAAAGCAGGAAAAUGAUAAAGUGGCUUCGGAUAACAUAGUCGUGCACAUGCCAGUAACAGGAAUAUAUUAACAUCUUUUAUUUGCUAGACAACAACAGAGGAUUGAGCAUCA
B22: chr4:13698614:13698615:+_ENSMUSG00000006586_ENSMUST00000098257|mus_hu|motif|central (ssRNA)
RNA: GGGAGUUCUACAGUCCGACGAUCACUCAGUGCUCUCCAAGUGUUUCUUUUGACAGAUAUCAUUCUCCACCAAUCGCUCUGCGGAUUUCCUCUCUCCUUUUCUGACUGGGACAGAGAUUAUGUUCACCAGCCCAGAGAUCAAUCCAACAGAGGAUUGAGCAUCA

molecular target: T1, UNK ZnF1-3; test: nsRBNS (natural sequence RNA bind-n-seq); RBNS binding buffer (assumed for nsRBNS): 25 mM Tris pH 7.5, 150 mM KCl, 3 mM MgCl2, 0.01% Triton X-100, 500 ug/ml BSA, 20 U/ml SUPERase-In, 4 C; UNK is unkempt and MSI1 is Musashi-1; names of the RNAs are library labels; protein concentration not given here; high values mean tight binding

Binder	binding signal [enrichment R]
B1	0.466
B2	0.671
B3	1.11
B4	0.962
B5	1.58
B6	1.11
B7	1.23
B8	0.523
B9	1.04
B10	0.452
B11	0.624
B12	0.775
B13	0.77
B14	1.28
B15	1.16
B16	0.994
B17	0.865
B18	1.64
B19	1.97
B20	0.898
B21	1.06
B22	0.646
